We go through 3 compounds from PubChem BioAssay (NCI).

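Values below derive from 48-hour exposures of cells grown in 96-well plates, with endpoints linearly interpolated between the two concentrations bracketing the appropriate inhibition level. GI50: concentration for 50% inhibition of growth. Definition used: TGI = concentration required for complete inhibition of growth.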

The test system of this experiment is NCI-H322M lung. Kind of experiment: growth of human tumour cells (NCI), 48 h.

As to `Cc1nc(Nc2ncc(C(=O)Nc3c(C)cccc3Cl)s2)cc(N2CCN(CCCNC(=O)COc3ccc(C4CCC(=O)NC4=O)cc3)CC2)n1` (stereo unspecified), the GI50 was 0.812 µM and the TGI is over 100 µM.
As for `O=C(CNc1nc(-c2ccccc2)cs1)Nc1ccc(Cl)cc1[N+](=O)[O-]`, the GI50 is 5.44 µM and the TGI came to 18.6 µM.
For `CC1CCCCN1CCCNC(=O)N/C(N)=N/c1nc2ccccc2s1` (stereo unspecified) the same measures were 26.8 µM and over 100 µM.
